Results on 14 sequences are retold here after paper PMC5700166.

This is a selection; strong and weak results do not stand in their true shares. The list includes weakly bound sequences.

The experiment deals with T1, GST-Ap-NF-kB RHD (UniProt A0A913YAJ5).
T1 sequence: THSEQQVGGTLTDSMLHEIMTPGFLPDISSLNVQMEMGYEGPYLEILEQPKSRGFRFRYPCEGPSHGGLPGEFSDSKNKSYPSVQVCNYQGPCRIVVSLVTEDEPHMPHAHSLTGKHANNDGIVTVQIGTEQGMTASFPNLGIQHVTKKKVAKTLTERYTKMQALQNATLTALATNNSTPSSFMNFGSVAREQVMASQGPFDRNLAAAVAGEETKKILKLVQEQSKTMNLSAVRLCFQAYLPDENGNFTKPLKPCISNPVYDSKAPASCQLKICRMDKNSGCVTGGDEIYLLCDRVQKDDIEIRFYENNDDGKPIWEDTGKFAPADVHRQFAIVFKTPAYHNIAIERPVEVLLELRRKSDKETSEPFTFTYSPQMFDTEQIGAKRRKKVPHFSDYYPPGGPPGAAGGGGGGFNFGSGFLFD
Kind of experiment: protein-binding microarray (PBM). To be noted: PBM: ~300 nM protein, 6 mM HEPES pH 7.8, 80 mM KCl, 0.5 mM EDTA, 0.5 mM EGTA, 6% glycerol, 35 ng/ul poly-dIdC, 1% milk, 1 h, room temperature; Ap Aiptasia and Nv Nematostella (sea anemones) / Co Capsaspora / Aq Amphimedon (sponge) / Dm Drosophila / Hu human; RHD is the Rel homology domain; high values mean tight binding; most listed sequences are background and not binding sites; double strand, one strand shown.
“CCGATTAACATCAGCGATTCCTTTGATGTTAATCGGGTCTTGATTCGCTTGACGCTGCTG” showed a binding signal of -0.78 z-score. “CCGATTAACATCACGGAATCTCCTGATGTTAATCGGGTCTTGATTCGCTTGACGCTGCTG”: the binding signal is -0.21 z-score. The sequence “CCGATTAACATCAACCCTCGAACTGATGTTAATCGGGTCTTGATTCGCTTGACGCTGCTG” yielded a binding signal of 0.133 z-score.

“CCGATTAACATCATCGACAGCAGTGATGTTAATCGGGTCTTGATTCGCTTGACGCTGCTG” came in with a binding signal of -0.248 z-score.

As to “CCGATTAACATCAAAGTGGTCTTTGATGTTAATCGGGTCTTGATTCGCTTGACGCTGCTG”, the binding signal is -0.979 z-score.

In turn, “CCGATTAACATCATTTCTCCTATTGATGTTAATCGGGTCTTGATTCGCTTGACGCTGCTG” displayed a binding signal of -0.0258 z-score. In the case of “CCGATTAACATCAGGATTGCCCATGATGTTAATCGGGTCTTGATTCGCTTGACGCTGCTG” it was 0.227 z-score.

In the case of “CCGATTAACATCAGTGCAGTCTATGATGTTAATCGGGTCTTGATTCGCTTGACGCTGCTG”, the binding signal was -0.469 z-score. In the case of “CCGATTAACATCAGTTCCTAATATGATGTTAATCGGGTCTTGATTCGCTTGACGCTGCTG” it was -0.731 z-score; in that of “CCGATTAACATCAAAGATTTGAATGATGTTAATCGGGTCTTGATTCGCTTGACGCTGCTG”, -0.429 z-score. The result for “CCGATTAACATCACTCTGGCTCTTGATGTTAATCGGGTCTTGATTCGCTTGACGCTGCTG” reads -0.207 z-score. The result for “CCGATTAACATCAGTGCTGACCGTGATGTTAATCGGGTCTTGATTCGCTTGACGCTGCTG” reads -0.124 z-score; that for “CCGATTAACATCAGCTCTAACTGTGATGTTAATCGGGTCTTGATTCGCTTGACGCTGCTG”, -0.54 z-score. The sequence “CCGATTAACATCAAAGGGAATTCTGATGTTAATCGGGTCTTGATTCGCTTGACGCTGCTG” yielded a binding signal of 4.72 z-score.
